According to the supplement of paper PMC4604168 (melanoma cell lines):
The other results are listed elsewhere or left out. Most values come without repeats; read them as rough.

tested on: RPMI7951; assay: cell count relative to DMSO control; melanoma cells; higher = more viable cells; settings: library dose: standard library concentration; 72 h
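Further: cells treated in 1,536-well plates, then fixed and DAPI-stained, with nuclei counted from automated high-throughput microscope images.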

Structure (SMILES) | cell count [%]
COCC[n+]1c2c(n(Cc3cnccn3)c1C)C(=O)c1ccccc1C2=O + O=c1cc(-c2cccc3c2Sc2ccccc2S3)oc(N2CCOCC2)c1 [KU55933] (first compound 0.002 µM, partner dose 5 µM) | 18.6
Cn1c(Nc2ccc(C(F)(F)F)cc2)nc2cc(Oc3ccnc(-c4ncc(C(F)(F)F)[nH]4)c3)ccc21 + O=C(CCCCCCC(=O)Nc1ccccc1)NO [vorinostat] (first compound 0.4 µM, partner dose 0.4 µM) | 34.9
COCC[n+]1c2c(n(Cc3cnccn3)c1C)C(=O)c1ccccc1C2=O + COc1cc2ncnc(Nc3ccc(Oc4ccccc4)cc3)c2cc1OC [SrcI1] (first compound 0.002 µM, partner dose 10 µM) | 35.5
COCC[n+]1c2c(n(Cc3cnccn3)c1C)C(=O)c1ccccc1C2=O + Cc1ccc(NC(=O)c2cccc(N(C)C)c2)cc1NC(=O)c1ccc(O)cc1 [ZM336372] (first compound 0.002 µM, partner dose 10 µM) | 35.6
COCC[n+]1c2c(n(Cc3cnccn3)c1C)C(=O)c1ccccc1C2=O + CN(NC(=O)CC(=O)NN(C)C(=S)c1ccccc1)C(=S)c1ccccc1 [STA4783] (first compound 0.002 µM, partner dose 0.03 µM) | 30.7
C#Cc1cccc(Nc2ncnc3cc(OCCOC)c(OCCOC)cc23)c1 [erlotinib] + Nc1cccc2c1CN(C1CCC(=O)NC1=O)C2=O [lenalidomide] (first compound 4 µM, partner dose 5 µM) | 115
Nc1cccc2c1CN(C1CCC(=O)NC1=O)C2=O (centres undefined) [lenalidomide] + COC(=O)c1sccc1S(=O)(=O)Nc1ccc(Nc2ccccc2)cc1OC [GSK0660] (first compound 5 µM, partner dose 5 µM) | 142
Nc1cccc2c1CN(C1CCC(=O)NC1=O)C2=O (centres undefined) [lenalidomide] + NC(=O)Nc1cc(-c2cccc(F)c2)sc1C(=O)N[C@H]1CCCNC1 [AZD7762] (first compound 5 µM, partner dose 0.1 µM) | 43
COCC[n+]1c2c(n(Cc3cnccn3)c1C)C(=O)c1ccccc1C2=O + COc1ccc2c(c1)CCC1C2CCC2(C)C(NCCCCCCN3C(=O)C=CC3=O)CCC12 [U73122] (first compound 0.002 µM, partner dose 2 µM) | 76.6
C#Cc1cccc(Nc2ncnc3cc(OCCOC)c(OCCOC)cc23)c1 [erlotinib] + COCC[n+]1c2c(n(Cc3cnccn3)c1C)C(=O)c1ccccc1C2=O [YM155] (first compound 4 µM, partner dose 0.002 µM) | 25.4
Clc1ccc(Nc2nnc(Cc3ccncc3)c3ccccc23)cc1 [vatalanib] + CCc1ccc(CCOc2ccc(CC3SC(=O)NC3=O)cc2)nc1 [pioglitazone] (first compound 10 µM, partner dose 10 µM) | 77.7
C#Cc1cccc(Nc2ncnc3cc(OCCOC)c(OCCOC)cc23)c1 [erlotinib] + CO[C@@H]1[C@H](N(C)C(=O)c2ccccc2)C[C@H]2O[C@]1(C)n1c3ccccc3c3c4c(c5c6ccccc6n2c5c31)C(=O)NC4 [Midostaurin] (first compound 4 µM, partner dose 0.4 µM) | 30.1

tested on: RVH-421; assay: as above; settings: library dose: standard library concentration; 72 h

Structure (SMILES) | cell count [%]
COCC[n+]1c2c(n(Cc3cnccn3)c1C)C(=O)c1ccccc1C2=O + CCc1ccc(CCOc2ccc(CC3SC(=O)NC3=O)cc2)nc1 [pioglitazone] (first compound 0.002 µM, partner dose 10 µM) | 96.4
Clc1ccc(Nc2nnc(Cc3ccncc3)c3ccccc23)cc1 [vatalanib] + Oc1cc(-c2nc(-c3ccccc3)[nH]c2-c2ccncc2)ccc1Cl [L779450] (first compound 10 µM, partner dose 1 µM) | 64.9
Clc1ccc(Nc2nnc(Cc3ccncc3)c3ccccc23)cc1 [vatalanib] + Cn1cc(/C=C2\C(=O)Nc3cccnc32)c2ccccc21 [GW441756] (first compound 10 µM, partner dose 2 µM) | 86.9
Nc1cccc2c1CN(C1CCC(=O)NC1=O)C2=O (centres undefined) [lenalidomide] + O=S(=O)(c1ccccc1)N(CC(F)(F)F)c1ccc(C(O)(C(F)(F)F)C(F)(F)F)cc1 [T0901317] (first compound 5 µM, partner dose 7 µM) | 71.3
Nc1cccc2c1CN(C1CCC(=O)NC1=O)C2=O (centres undefined) [lenalidomide] + CN(C)S(=O)(=O)c1ccc2c(c1)/C(=C/c1cc3c([nH]1)CCCC3)C(=O)N2 [SU6656] (first compound 5 µM, partner dose 2 µM) | 76.1
C#Cc1cccc(Nc2ncnc3cc(OCCOC)c(OCCOC)cc23)c1 [erlotinib] + COc1cc(Nc2ncc(F)c(Nc3ccc4c(n3)NC(=O)C(C)(C)O4)n2)cc(OC)c1OC [Tamatinib] (first compound 4 µM, partner dose 2 µM) | 78.2
Nc1cccc2c1CN(C1CCC(=O)NC1=O)C2=O (centres undefined) [lenalidomide] + CC(C)(C)c1cnc(CSc2cnc(NC(=O)C3CCNCC3)s2)o1 [SNS-032] (first compound 5 µM, partner dose 0.05 µM) | 92.4
O=C(CCCCCCC(=O)Nc1ccccc1)NO [vorinostat] + CC(C)(C)c1cnc(CSc2cnc(NC(=O)C3CCNCC3)s2)o1 [SNS-032] (first compound 0.4 µM, partner dose 0.05 µM) | 104
Clc1ccc(Nc2nnc(Cc3ccncc3)c3ccccc23)cc1 [vatalanib] + O=C(Nc1ccccc1)c1cc([N+](=O)[O-])ccc1Cl [GW9662] (first compound 10 µM, partner dose 10 µM) | 55.8
COCC[n+]1c2c(n(Cc3cnccn3)c1C)C(=O)c1ccccc1C2=O + COc1cc(N2CCC(N3CCN(C)CC3)CC2)ccc1Nc1ncc(Cl)c(Nc2ccccc2S(=O)(=O)C(C)C)n1 [NVP-TAE684] (first compound 0.002 µM, partner dose 0.4 µM) | 95.6
O=C(CCCCCCC(=O)Nc1ccccc1)NO [vorinostat] + COc1ccc(-c2ccc3c(N4CCOCC4)nc(N4C[C@@H](C)O[C@@H](C)C4)nc3n2)cc1CO [KU0063794] (first compound 0.4 µM, partner dose 0.1 µM) | 83.5
Cn1c(Nc2ccc(C(F)(F)F)cc2)nc2cc(Oc3ccnc(-c4ncc(C(F)(F)F)[nH]4)c3)ccc21 + CN(C)S(=O)(=O)c1ccc2c(c1)/C(=C/c1cc3c([nH]1)CCCC3)C(=O)N2 [SU6656] (first compound 0.4 µM, partner dose 2 µM) | 45
Clc1ccc(Nc2nnc(Cc3ccncc3)c3ccccc23)cc1 [vatalanib] + OCCn1cc(-c2cnc3nnn(Cc4ccc5ncccc5c4)c3n2)cn1 [PF04217903] (first compound 10 µM, partner dose 5 µM) | 71.9
Nc1cccc2c1CN(C1CCC(=O)NC1=O)C2=O (centres undefined) [lenalidomide] + COc1ccc2c(c1)CCC1C2CCC2(C)C(NCCCCCCN3C(=O)C=CC3=O)CCC12 [U73122] (first compound 5 µM, partner dose 2 µM) | 112
Cn1c(Nc2ccc(C(F)(F)F)cc2)nc2cc(Oc3ccnc(-c4ncc(C(F)(F)F)[nH]4)c3)ccc21 + COc1cc(N2CCC(N3CCN(C)CC3)CC2)ccc1Nc1ncc(Cl)c(Nc2ccccc2S(=O)(=O)C(C)C)n1 [NVP-TAE684] (first compound 0.4 µM, partner dose 0.4 µM) | 51.9
C#Cc1cccc(Nc2ncnc3cc(OCCOC)c(OCCOC)cc23)c1 [erlotinib] + COc1cc2ncnc(Nc3ccc(Oc4ccccc4)cc3)c2cc1OC [SrcI1] (first compound 4 µM, partner dose 10 µM) | 72.3
C#Cc1cccc(Nc2ncnc3cc(OCCOC)c(OCCOC)cc23)c1 [erlotinib] + Cc1cc([N+](=O)[O-])ccc1NS(=O)(=O)c1cc(Cl)ccc1Cl [FH535] (first compound 4 µM, partner dose 5 µM) | 64.5
OCc1c[nH]c2ccccc12 [Indole-3-carbinol] + C#Cc1cccc(Nc2ncnc3cc(OCCOC)c(OCCOC)cc23)c1 [erlotinib] (first compound 4 µM, partner dose 4 µM) | 99.1
Clc1ccc(Nc2nnc(Cc3ccncc3)c3ccccc23)cc1 [vatalanib] + O=C(O)c1ccc(-c2c[nH]c3ncc(-c4ccccc4)cc23)cc1C1CCCC1 [GSK650394] (first compound 10 µM, partner dose 0.8 µM) | 65.1
Cn1c(Nc2ccc(C(F)(F)F)cc2)nc2cc(Oc3ccnc(-c4ncc(C(F)(F)F)[nH]4)c3)ccc21 + CO[C@@H]1[C@H](N(C)C(=O)c2ccccc2)C[C@H]2O[C@]1(C)n1c3ccccc3c3c4c(c5c6ccccc6n2c5c31)C(=O)NC4 [Midostaurin] (first compound 0.4 µM, partner dose 0.4 µM) | 42.4
Clc1ccc(Nc2nnc(Cc3ccncc3)c3ccccc23)cc1 [vatalanib] + COCC[n+]1c2c(n(Cc3cnccn3)c1C)C(=O)c1ccccc1C2=O [YM155] (first compound 10 µM, partner dose 0.002 µM) | 88.6
Cn1c(Nc2ccc(C(F)(F)F)cc2)nc2cc(Oc3ccnc(-c4ncc(C(F)(F)F)[nH]4)c3)ccc21 + O=C(O)C(=O)Nc1sc2c(c1C(=O)O)CCNC2 [TCS401] (first compound 0.4 µM, partner dose 8.33333 µM) | 71.2
